Measurements reported in patent publication US9833497B2, “Human originated EGF domain proteins and use of the same” (CHENGDU SOURCEBIO LIMITED-LIABILITY COMPANY, priority 2013, dated 2017).

Columns and labels:
Format in all cases: cell-based
Moraxella catarrhalis = test: MIC against Gram-negative bacteria: Moraxella catarrhalis; details: for MIC against M. catarrhalis: Moraxella catarrhalis; for MIC against M. catarrhalis / MIC M. catarrhalis: 5×10^5 CFU/mL
Procedure: (§1) 1. Gram-negative bacteria, such as E. coli BL21, Pseudomonas aeruginosa, Klebsiella pneumonia, Enterobacter cloacae, Aeromonas hydrophila, Citrobacter diversus, Moraxella catarrhalis, Proteus mirabilis, Proteus vulgaris, Serratia marcescens, etc were streaked on solid LB medium and cultured respectively. Then, typical clones were picked, inoculated into common liquid LB medium respectively, and cultured at 37° C. with shaking at 185 rpm until the McFarland specific turbidity was 0.5. The bacterial culture of each of Gram-negative bacteria was centrifuged at 4000×g for 3 min, the supernatant was discarded, and the thalli were resuspended with fresh LB medium.
(§2) 2. The above-mentioned bacterial suspensions were diluted and inoculated into 96-well plates with the final concentration of the bacterial suspension being 5×10^5 CFU/mL per well.
(§3) 3. Each of the purified human-originated EGF domain proteins (PRT1 to PRT1498 in Table 1) was added to each of the above wells and subjected to two-fold serial dilution in concentration. Three parallel wells were set up for each concentration in the gradient.
(§4) 4. The above-mentioned 96-well plates were placed and cultured at 37° C. in shaking incubator shaking at 175 rpm. […] The minimal inhibitory concentration MIC is defined as the lowest concentration of the recombinant protein at which there is no growth of the bacteria.

Aeromonas hydrophila = test: MIC against Gram-negative bacteria: Aeromonas hydrophila; details: for MIC against A. hydrophila: Aeromonas hydrophila; for MIC against A. hydrophila / MIC A. hydrophila: 5×10^5 CFU/mL
Procedure: as §1, §2, §3, §4

Proteus mirabilis = test: MIC against Gram-negative bacteria: Proteus mirabilis; details: for MIC against P. mirabilis: Proteus mirabilis; for MIC against P. mirabilis / MIC P. mirabilis: 5×10^5 CFU/mL
Procedure: as §1, §2, §3, §4

Serratia marcescens = test: MIC against Gram-negative bacteria: Serratia marcescens; details: for MIC against S. marcescens: Serratia marcescens; for MIC against S. marcescens / MIC S. marcescens: 5×10^5 CFU/mL
Procedure: as §1, §2, §3, §4

E. coli BL21 = test: MIC against Gram-negative bacteria: E. coli BL21; details: for MIC against E. coli BL21 / MIC E. coli BL21: 5×10^5 CFU/mL
Procedure: as §1, §2, §3, §4

Klebsiella pneumonia = test: MIC against Gram-negative bacteria: Klebsiella pneumonia; details: for MIC against K. pneumonia: Klebsiella pneumonia; for MIC against K. pneumonia / MIC K. pneumonia: 5×10^5 CFU/mL
Procedure: as §1, §2, §3, §4

Pseudomonas aeruginosa = test: MIC against Gram-negative bacteria: Pseudomonas aeruginosa; details: for MIC against P. aeruginosa: Pseudomonas aeruginosa; for MIC against P. aeruginosa / MIC P. aeruginosa: 5×10^5 CFU/mL
Procedure: as §1, §2, §3, §4

Citrobacter diversus = test: MIC against Gram-negative bacteria: Citrobacter diversus; details: for MIC against C. diversus: Citrobacter diversus; for MIC against C. diversus / MIC C. diversus: 5×10^5 CFU/mL
Procedure: as §1, §2, §3, §4

Proteus vulgaris = test: MIC against Gram-negative bacteria: Proteus vulgaris; details: for MIC against P. vulgaris: Proteus vulgaris; for MIC against P. vulgaris / MIC P. vulgaris: 5×10^5 CFU/mL
Procedure: as §1, §2, §3, §4

Enterobacter cloacae = test: MIC against Gram-negative bacteria: Enterobacter cloacae; details: for MIC against E. cloacae: Enterobacter cloacae; for MIC against E. cloacae / MIC E. cloacae: 5×10^5 CFU/mL
Procedure: as §1, §2, §3, §4

E. coli DH5α = test: Antibacterial activity: MIC and growth curve against E. coli DH5α in 96-well plate; details: minimal inhibitory concentration against E. coli DH5α, 5×10^5 CFU/mL, 37° C., judged after 8 h
Procedure: 1. E. coli DH5α was exemplified. E. coli DH5α was streaked and cultured on LB solid medium. Then, a typical clone was picked and inoculated into common LB liquid medium, cultured at 37° C. with shaking at 185 rpm until the logarithmic growth phase was reached (OD600 of about 0.5). The bacterial culture was centrifuged at 4000×g for 3 min, the supernatant was discarded, and the thalli were resuspended with fresh LB medium.
2. The above-mentioned bacterial suspension was diluted and inoculated into a 96-well plate with the total volume of 100 μL per well and a bacterial count of 5×10^5 CFU/mL.
3. The recombinant protein hF VII-EGF1 was added to the above-mentioned wells with the final protein concentration in the well of the highest protein concentration being 50 μg/mL. Basing on this final concentration, a two-fold serial dilution was performed till a protein concentration gradient consisting of 50, 25, and 12.5 μg/mL was set up. Three parallel wells were set up for each concentration in the gradient.
as §4, with “plate was” for “plates were”, “rpm. Samples were taken every 30 min, the absorbance values were determined at 600 nm wavelength under a ultra violet spectrophotometer, and an inhibition curve was plotted.” for “rpm.”
According to the experimental procedures in Example 14, the minimal inhibitory concentrations (MIC, μg/mL) of the other human-originated EGF domain proteins (PRT2 to PRT1498 in Table 1) for E. coli DH5α were determined.

[1] = E. coli BL21, 10 h cultivation at 37° C.
[2] = 10 h cultivation at 37° C., two-fold serial dilution

PRT1220 (DIDECLPSPCHSGGTCHNLVGGFSCSCPDGFTGRACE; listed as Homo sapiens)
MIC against M. catarrhalis (Moraxella catarrhalis; 96-well plate, 37° C., 10 h): 25 µg/mL
MIC against A. hydrophila (Aeromonas hydrophila; 96-well plate, 37° C., 10 h): 25 µg/mL
MIC against P. mirabilis (Proteus mirabilis; 96-well plate, 37° C., 10 h): 12.5 µg/mL
MIC against S. marcescens (Serratia marcescens; 96-well plate, 37° C., 10 h): 25 µg/mL
MIC against E. coli BL21 (E. coli BL21; E. coli BL21, 96-well plate, 37° C., 10 h): 25 µg/mL
MIC against K. pneumonia (Klebsiella pneumonia; 96-well plate, 37° C., 10 h): 12.5 µg/mL
MIC against P. aeruginosa (Pseudomonas aeruginosa; 96-well plate, 37° C., 10 h): 50 µg/mL
MIC against C. diversus (Citrobacter diversus; 96-well plate, 37° C., 10 h): 50 µg/mL
MIC against P. vulgaris (Proteus vulgaris; 96-well plate, 37° C., 10 h): 50 µg/mL
MIC against E. cloacae (Enterobacter cloacae; 96-well plate, 37° C., 10 h): 25 µg/mL
MIC (E. coli DH5α): 12.5 µg/mL

PRT911 (NVDDCNPPVDPVSRSPKCFNNGTCVDQVGGYSCTCPPGFVGERCE; listed as Homo sapiens)
MIC (Moraxella catarrhalis; M. catarrhalis, 10 h cultivation at 37° C.): 12.5 µg/mL
MIC (Aeromonas hydrophila; A. hydrophila, 10 h cultivation at 37° C.): 12.5 µg/mL
MIC (Proteus mirabilis; P. mirabilis, 10 h cultivation at 37° C.): 50 µg/mL
MIC (Serratia marcescens; S. marcescens, 10 h cultivation at 37° C.): 50 µg/mL
MIC (E. coli BL21; [1]): 12.5 µg/mL
MIC (Klebsiella pneumonia; K. pneumonia, 10 h cultivation at 37° C.): 50 µg/mL
MIC (Pseudomonas aeruginosa; P. aeruginosa, 10 h cultivation at 37° C.): 25 µg/mL
MIC (Citrobacter diversus; C. diversus, 10 h cultivation at 37° C.): 50 µg/mL
MIC (Proteus vulgaris; P. vulgaris, 10 h cultivation at 37° C.): 12.5 µg/mL
MIC (Enterobacter cloacae; E. cloacae, 10 h cultivation at 37° C.): 25 µg/mL
MIC (E. coli DH5α): 12.5 µg/mL

PRT1350 (EEPICILPCLNGGRCVAPYQCDCPPGWTGSRCH; listed as Homo sapiens)
MIC against M. catarrhalis (Moraxella catarrhalis; 10 h cultivation at 37° C.): 25 µg/mL
MIC against A. hydrophila (Aeromonas hydrophila; 10 h cultivation at 37° C.): 25 µg/mL
MIC against P. mirabilis (Proteus mirabilis; 10 h cultivation at 37° C.): 50 µg/mL
MIC against S. marcescens (Serratia marcescens; 10 h cultivation at 37° C.): 12.5 µg/mL
MIC against E. coli BL21 (E. coli BL21; [1]): 12.5 µg/mL
MIC against K. pneumonia (Klebsiella pneumonia; 10 h cultivation at 37° C.): 12.5 µg/mL
MIC against P. aeruginosa (Pseudomonas aeruginosa; 10 h cultivation at 37° C.): 50 µg/mL
MIC against C. diversus (Citrobacter diversus; 10 h cultivation at 37° C.): 12.5 µg/mL
MIC against P. vulgaris (Proteus vulgaris; 10 h cultivation at 37° C.): 25 µg/mL
MIC against E. cloacae (Enterobacter cloacae; 10 h cultivation at 37° C.): 50 µg/mL
MIC (E. coli DH5α): 50 µg/mL

PRT611 (CACNGHSETCDPETGVCNCRDNTAGPHCEKCSDGYYGDSTAGTSSDCQP; listed as Homo sapiens)
MIC M. catarrhalis (Moraxella catarrhalis; 96-well plate, 37° C., 10 h): 25 µg/mL
MIC A. hydrophila (Aeromonas hydrophila; 96-well plate, 37° C., 10 h): 25 µg/mL
MIC P. mirabilis (Proteus mirabilis; 96-well plate, 37° C., 10 h): 12.5 µg/mL
MIC S. marcescens (Serratia marcescens; 96-well plate, 37° C., 10 h): 50 µg/mL
MIC E. coli BL21 (E. coli BL21; 96-well plate, 37° C., 10 h): 25 µg/mL
MIC K. pneumonia (Klebsiella pneumonia; 96-well plate, 37° C., 10 h): 25 µg/mL
MIC P. aeruginosa (Pseudomonas aeruginosa; 96-well plate, 37° C., 10 h): 50 µg/mL
MIC C. diversus (Citrobacter diversus; 96-well plate, 37° C., 10 h): 50 µg/mL
MIC P. vulgaris (Proteus vulgaris; 96-well plate, 37° C., 10 h): 25 µg/mL
MIC E. cloacae (Enterobacter cloacae; 96-well plate, 37° C., 10 h): 12.5 µg/mL
MIC (E. coli DH5α): 12.5 µg/mL

PRT1124 (AECFPACNPQNGFCEDDNVCRCQPGWQGPLCD; listed as Homo sapiens)
MIC M. catarrhalis (Moraxella catarrhalis; [2]): 50 µg/mL
MIC A. hydrophila (Aeromonas hydrophila; [2]): 50 µg/mL
MIC P. mirabilis (Proteus mirabilis; [2]): 12.5 µg/mL
MIC S. marcescens (Serratia marcescens; [2]): 12.5 µg/mL
MIC E. coli BL21 (E. coli BL21; [2]): 50 µg/mL
MIC K. pneumonia (Klebsiella pneumonia; [2]): 12.5 µg/mL
MIC P. aeruginosa (Pseudomonas aeruginosa; [2]): 25 µg/mL
MIC C. diversus (Citrobacter diversus; [2]): 12.5 µg/mL
MIC P. vulgaris (Proteus vulgaris; [2]): 50 µg/mL
MIC E. cloacae (Enterobacter cloacae; [2]): 25 µg/mL
MIC (E. coli DH5α): 25 µg/mL
